Laboratory results: PubChem BioAssay AID485364 (National Center for Advancing Translational Sciences (NCATS), 2010)
Hit rate of the full screen: of about 360,000 compounds, about 11,000 (3.1%) were called active. The inconclusive results got no clear call from the source; some entries with a clear call stand among them for comparison. Calls follow the shape of the dose curve; as a rule, active = well fitted inhibition curve with a large enough effect; inconclusive = small, poorly fitted or top-dose-only effect; inactive = no such curve, though single readings can be large or run the other way. Potencies of inconclusive entries are left out as doubtful fits.

target: Schistosoma mansoni thioredoxin glutathione reductase (TGR) (UniProt Q962Y6); assay: qHTS Assay for the Inhibitors of Schistosoma Mansoni Peroxiredoxins; conditions: purified TGR, DTNB reduction, TNB absorbance 405 nm; activity change, negative = inhibition: at 114 µM (top of the series); also: nearly all actives have a fitted effect of over 60% in size
Method in brief: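 First, TGR (20 nM dispensed) and NADPH were mixed with compound. Second, a 15 min room-temperature incubation followed. Third, further NADPH and then DTNB were added to start the reaction. Finally, TNB absorbance was monitored kinetically.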
% is scaled to controls: 0 for no effect and ±100 for the full control effect; potency is read from the fitted curve at half-maximal effect; tags tell the direction and shape of the fitted curve.

Compound | Potency | activity change, negative = inhibition
COc1ccccc1NC(=S)NC(=O)C(C)C | inconclusive [inhibitor, partial curve] | 
C#CCOCCOCCOCCNc1nc(N2CCN(C(=O)CCCCCCCCCCNC(=O)Cn3cc(CCCCCN)nn3)CC2)nc(N2CCN(C(=O)CCCCCCCCCCNC(=O)[C@@H]([C@H](C)O)n3cc(C)nn3)CC2)n1 | inconclusive [inhibitor, partial curve] | 
CCCOC(=O)c1ccc(NC(=O)C2CC(=O)N(c3ccc(C)cc3)C2)cc1 (centres undefined) |  | inactive: 11.4%
Cc1cccc(S(=O)Cc2ccc(C(=O)N3CCN(C(=O)c4ccco4)CC3)o2)c1 (centres undefined) | inconclusive [inhibitor, partial curve, poor fit] | 
CC(NC(=S)Nc1ccc(OC(F)F)c(Cl)c1)C(C)(C)C (centres undefined) |  | inactive: -2.09%
Cc1ccc(CN(C(=O)COc2cccc(Cl)c2)c2ccccn2)o1 | inconclusive [inhibitor, partial curve] | 
Cc1ccc(C(CC(=O)N2CCOCC2)c2ccco2)cc1 (centres undefined) | active: 28.2 µM | 
Cn1c(=O)[nH]c(=O)c2c1nc(SCCCO)n2CCCc1ccccc1 | inconclusive [inhibitor, partial curve] | 
CCN1CCN(CC(=O)Nc2sc3c(c2C#N)CCC(C)C3)CC1 (centres undefined) | inconclusive [inhibitor, single point] | 
Cc1ccc(CN2CCN(Cc3ccccc3-c3ccco3)CC2CCO)o1 (centres undefined) | inconclusive [inhibitor, partial curve] | 
Cc1ccc(-c2cc(C(=O)O)c3cc(Br)ccc3n2)o1 | active: 2 µM | 
CC(=O)c1c(C)n([O-])c2cc(F)c(F)cc2[n+]1=O | inconclusive [inhibitor, single point] | 
COc1ccc(CCNc2oc(/C=C/c3ccc(OC)c(OC)c3)nc2C#N)cc1 |  | inactive: 2.15%
CCCSc1nnc2c(n1)OC(c1cccn1C)N(C(C)=O)c1ccccc1-2 (centres undefined) | inconclusive [inhibitor, single point] | 
O=C(CCNc1ccc(F)cc1)c1ccco1 | active: 3.98 µM | 
O=C(Cn1nnc(-c2ccc3c(c2)OCO3)n1)NCc1ccco1 | inconclusive [inhibitor, partial curve] | 
O=C(CSc1nc2ccccc2[nH]1)c1cccs1 | inconclusive [inhibitor, single point] | 

Compound | Potency | activity change, negative = inhibition
CCCN(CCC)c1ccc(/C=C/c2ccc3cc(OCC)ccc3n2)cc1 | inconclusive [inhibitor, full curve, poor fit] | 
Cc1cccc(NC(=O)CN2C(=O)S/C(=C\c3cc(C)n(C)c3C)C2=O)c1 | inconclusive [inhibitor, partial curve] | 
C/C(=C\c1ccccc1)CN1CCN(c2ccccc2)CC1 | inconclusive [inhibitor, full curve, poor fit] | 
CCN(CC)c1ccc2cc(-c3nnc(-c4ccccc4)o3)c(=O)oc2c1 | inconclusive [inhibitor, single point] | 
CC(=O)C1=C(C)Nc2ncnn2C1c1ccccc1OCc1ccccc1 (centres undefined) | inconclusive [inhibitor, single point] | 
O=C(CCS(=O)(=O)c1ccc2c(c1)NC(=O)CS2)NCCc1ccc(Cl)cc1 | inconclusive [inhibitor, partial curve] | 
CCC(=O)N1c2ccccc2CC1C(=O)NCCc1ccccc1OC (centres undefined) |  | inactive: -3.08%
COc1ccc2c(c1)OCC1=C2CCC2(C)C(=O)CC=C12 (centres undefined) | active: 20 µM | 
Cc1cccc(CNc2ncnc3ccc(-c4cccc(Cl)c4)cc23)c1 |  | inactive: -15.8%
COc1ccccc1N1CCN(c2ccc(=O)n(CC(=O)O)n2)CC1 |  | inactive: -0.533%
CCCCN(C(=O)c1cc(S(=O)(=O)N2CCCCCC2)ccc1OC)c1c(N)n(CCC)c(=O)[nH]c1=O |  | inactive: -7.04%
Cn1c(SCc2cccc3ccccc23)nnc1-c1ccco1 | inconclusive [inhibitor, full curve] | 
CCOC(=O)C1CCCN(C(=O)c2ccc(CS(=O)(=O)c3ccc(Br)cc3)o2)C1 (centres undefined) | active: 20 µM | 
O=C1CCC(C(=O)N2CCc3c(Cl)cccc3C2)CN1CCCN1CCOCC1 (centres undefined) |  | inactive: -27.9%
CC[C@@]1(c2cccc(C)c2)C(=O)N(C(=O)OC)N1C(=O)OC | active: 1.58 µM | 
CCOc1ccc(NC(=O)CN2C(=O)NC(C)(c3ccc(OC(F)F)cc3)C2=O)cc1 (centres undefined) | inconclusive [inhibitor, partial curve] | 
COc1cc(NC(=O)CN2C(=O)COc3ccc(S(=O)(=O)N4CCCC4)cc32)cc(OC)c1 |  | inactive: -7.63%
